The record followed here is PMC9895059.

Sequences of proteins named here, by UniProt entry; tags and fusion partners are left off.
UniProt P35367: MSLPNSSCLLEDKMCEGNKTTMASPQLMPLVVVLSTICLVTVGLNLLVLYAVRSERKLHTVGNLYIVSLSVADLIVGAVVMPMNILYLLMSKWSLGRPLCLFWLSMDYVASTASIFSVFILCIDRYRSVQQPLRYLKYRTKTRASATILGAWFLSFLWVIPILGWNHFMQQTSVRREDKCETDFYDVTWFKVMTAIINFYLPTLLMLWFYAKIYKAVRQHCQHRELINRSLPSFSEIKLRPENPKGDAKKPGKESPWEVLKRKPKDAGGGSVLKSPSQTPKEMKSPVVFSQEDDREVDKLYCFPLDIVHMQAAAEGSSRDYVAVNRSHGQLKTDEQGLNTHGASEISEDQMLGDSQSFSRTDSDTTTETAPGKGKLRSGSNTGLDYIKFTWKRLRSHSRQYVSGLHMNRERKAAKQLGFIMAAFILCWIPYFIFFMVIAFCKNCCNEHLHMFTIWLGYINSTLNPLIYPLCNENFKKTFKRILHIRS
UniProt P61073: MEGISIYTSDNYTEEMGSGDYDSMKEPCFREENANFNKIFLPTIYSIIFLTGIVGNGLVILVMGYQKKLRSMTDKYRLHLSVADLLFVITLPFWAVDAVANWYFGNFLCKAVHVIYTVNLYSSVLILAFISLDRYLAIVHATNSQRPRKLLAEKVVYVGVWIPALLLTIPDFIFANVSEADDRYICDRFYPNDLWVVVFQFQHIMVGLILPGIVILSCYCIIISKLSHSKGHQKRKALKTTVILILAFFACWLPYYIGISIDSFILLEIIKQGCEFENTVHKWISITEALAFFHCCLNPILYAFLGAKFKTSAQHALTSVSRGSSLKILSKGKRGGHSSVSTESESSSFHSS
UniProt P35372: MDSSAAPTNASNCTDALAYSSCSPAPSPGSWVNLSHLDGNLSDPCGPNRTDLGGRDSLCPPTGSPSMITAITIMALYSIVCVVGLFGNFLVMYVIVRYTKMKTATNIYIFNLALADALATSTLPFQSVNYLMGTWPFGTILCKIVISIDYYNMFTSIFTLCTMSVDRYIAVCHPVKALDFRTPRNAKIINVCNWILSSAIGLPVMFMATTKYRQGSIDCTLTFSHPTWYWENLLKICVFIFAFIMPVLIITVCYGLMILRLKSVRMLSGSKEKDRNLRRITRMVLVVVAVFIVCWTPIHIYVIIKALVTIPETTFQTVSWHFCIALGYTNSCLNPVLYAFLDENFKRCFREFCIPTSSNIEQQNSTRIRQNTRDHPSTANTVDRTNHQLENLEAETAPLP

Results are given in words; binding and its absence hold for the method and conditions named. Binding seen in cells or lysates may run through a third protein. Some entries that bind do so weakly or less than the wild type.

Assay [1] has as its target histamine receptor H1 (HRH1) fused to a Venus BiFC fragment (UniProt P35367). In words: split reporter; BiFC with Venus fragments VNm10 and VC155 at the C-termini of the receptors; HEK293A cells cotransfected, fixed with 2% formaldehyde 48 h after transfection, confocal microscopy.
Assay [2] deals with HRH1 fused to mCitrine (BRET acceptor) or Rluc8 (BRET donor) (UniProt P35367). The assay is described as follows: FRET or BRET; BRET donor saturation assay in HEK293A cells: fixed amount of donor (GPCR-Rluc8), increasing amounts of acceptor (GPCR-mCitrine); coelenterazine h 5 μM; BRET plotted against mCitrine/Rluc8. Background: In BRET a luciferase serves as donor, and the signal depends on an acceptor being close.

In assay [3] the target is CXCR4 fused to Rluc8 (BRET donor) or mCitrine (BRET acceptor) (UniProt P61073). The description is as above.
In assay [4] the target is C-X-C chemokine receptor 4 (CXCR4) fused to a Venus BiFC fragment (UniProt P61073). The assay is described as follows: split reporter; BiFC with Venus fragments VNm10 and VC155 at the C-termini of the receptors; HEK293A cells cotransfected, fixed with 2% formaldehyde 48 h after transfection, confocal microscopy.

In the case of “C-X-C chemokine receptor 4 (CXCR4) fused to a Venus BiFC fragment (from UniProt P61073 1-352)”, in assay [1], the binding result is “binds”.

“CXCR4 fused to Rluc8 (BRET donor) or mCitrine (BRET acceptor) (from UniProt P61073 1-352) (receptor)”: the binding entry in assay [2] is “binds”.

“HRH1 fused to mCitrine (BRET acceptor) or Rluc8 (BRET donor) (from UniProt P35367 1-487) (receptor)”: the binding entry in assay [3] is recorded as “binds”.

With “histamine receptor H1 (HRH1) fused to a Venus BiFC fragment (from UniProt P35367 1-487)”, the binding result in assay [4] was “binds”.

In the case of “opioid receptor μ type 1 (OPRM1), N-terminal HA tag, fused to a Venus BiFC fragment (from UniProt P35372 1-400)”, the binding result in assay [4] is reported as “no binding”.
